# Experimental data taken from the RNAGym collection of RNA variant scans (doi:10.7554/elife.90254).
# The source gives no read counts; variants with many changes may rest on few reads.
# B1: LINE1-mini (parent)
# chain: GGCAGAGCUCAACACAGCGUGGCAAAGUGGCUGUGGCUAGACUGCC
# Variants of: B1
# Assay: self-cleavage, relative activity (ratio to wild type); higher = more cleavage; in vitro, sequencing; the parent is a self-cleaving ribozyme
row,Variant,self-cleavage
1,ACCAGAGCUCAACACAGCGUGGCAAAGUGGCUGUGGCUGGACUGCC [G1A G2C A39G],0.18
2,ACCAGAGCUCAACACAGCGAGGCAAAGUGGCUGUGGCUAGAAUGCC [G1A G2C U20A C42A],0.01
3,AGCAGAGCUCAACAGAGCGUGGCGAAGUGGCUGUGGCUAGACUGCC [G1A C15G A24G],0.04
4,ACCAGAGCUCAACUCGGCGUGGCAAAGUGGCUGUGGCUAGACUGCA [G1A G2C A14U A16G C46A],0.06
5,AGCAGAGCUCAACACAGCGUGGUAAUGUGGCUGUGGCUACACUGCC [G1A C23U A26U G40C],0.07
6,AACACAUCUCAACACAGCGUGGCAAAGUGGCUGUGGCUACACUGCC [G1A G2A G5C G7U G40C],0.94
7,AGCAGAGCUCAAGACUGCGUGGCAAAGUGGCUGUGGCUAGACUGCC [G1A C13G A16U],0.05
8,AACAGAGCUCAACACAGCGUGGCAAAGUCGCUGUGGCUAGACUGCC [G1A G2A G29C],0.78
9,AGCAGAGCUCAAGACAGCGUGGAAAAGUGUCUGUCGCUAGACUGCC [G1A C13G C23A G30U G35C],0.29
10,AGCAGAGCUCAAUAAACCGUGGCAAUGUGGCUGUGGCUCGUCAACC [G1A C13U C15A G17C A26U A39C A41U U43A G44A],0.01
11,AUCAGUGCUCAAUACAGCGUGGCGAAGUGGCUGUGGCUAUACUGCC [G1A G2U A6U C13U A24G G40U],0.05
12,ACCAUAGCUCAACACAGCGUGGCAAAGUGGUUGUGGCUAGACUGCC [G1A G2C G5U C31U],0.03
13,AGCAGAGCUCAAAACUGCGUGGCAAAGUGGCUGUGGCUAGACUGCC [G1A C13A A16U],0.06
14,AGCAGAGCUCAACAUAGCGUGGCAAAGUGGCUGUGGCUAGAAUGCC [G1A C15U C42A],0.08
15,AGCAGAGCUCAACACAGCGUGGGAAACGGGCUGAGGCUAGACUGCC [G1A C23G G27C U28G U34A],0.09
16,ACCAGAGCUCAACACAUCGUGGCAAAGUGGCUGUACCUAGACUGCC [G1A G2C G17U G35A G36C],0.17
17,AUCAGAGCUCAACACAUCGUGACAAAGUGGCUGUGGCUAGACUGCC [G1A G2U G17U G22A],0.04
18,AACAGAGCUCAACACAGCGUGGCAAAGUGGCUGUCGCUAGACUGCC [G1A G2A G35C],1.62
19,AGCAGAGCUCAACACAGAGUGGCAAAGUGGCUGUGGCUAGACUGUC [G1A C18A C45U],0.35

row,Variant,self-cleavage
1,AUCAGAGCUCAACACAGCGUGGCAAAGUGGAUGUGGCUUGACUGCC [G1A G2U C31A A39U],0.04
2,AGCAGAGCUCAAGACAGCGUGGCAAAAUGGCUGUGGCUAGACUGCC [G1A C13G G27A],0.03
3,AUCAGCGCUCUACACAACGUGGCAAGGUGGCUGUGGCUCGACCGAC [G1A G2U A6C A11U G17A A26G A39C U43C C45A],0.01
4,AGCAGAGCUCAACACAGCGUGGUACGGUGGCUGUGGCUAGACUGCC [G1A C23U A25C A26G],1.57
5,ACCAGAGCUCAACACAGCCUGCCAAAGCGGCUGUGGCUAGACUGCC [G1A G2C G19C G22C U28C],0.03
6,AACAGCGCUCAACACAGCGUGGCAAAGUGGCUGUGGCUAGACUGCC [G1A G2A A6C],0.39
7,AGCAGAGCUCAACACAGCGUGGUAAAGUGGCUGCGGCUCGACUGCC [G1A C23U U34C A39C],0.04
8,AGCAGAGCUCAAUACAGCGUGGCAAAGUGUCUGUGGCUAGACUGCC [G1A C13U G30U],0.06
9,ACCAGAGUUCAACUCAGGGUGGCAAAGUGUCUGUCGCUAGACUGCC [G1A G2C C8U A14U C18G G30U G35C],0.01
10,ACCAGAGCUCAACACAGCGUGGCAAAGUGGCUGAGGCUAGACUGCC [G1A G2C U34A],0.06
11,AGCAGAGCUCAACACAGCGUGGCAAAGUGGUGGUGGCUAGACAGCC [G1A C31U U32G U43A],0.02
12,ACCAGAGCUCAACACAGCAUGGCAAAGUGGCGGUGUCUAGACUGCC [G1A G2C G19A U32G G36U],0.02
13,AGCAGAGCUCAACAGAGCGUGGCAAAUUGGCUUUGGCUAGACUGCC [G1A C15G G27U G33U],0.04
14,AGCAGAGCUCAAUACAGCGUGGCUAAGUGGCUGAGGUUAGACUGCC [G1A C13U A24U U34A C37U],0.09
15,AACAGAGGUAAACACAGCGCGGCAAAGUGGCUGUGGCUAAACUGCC [G1A G2A C8G C10A U20C G40A],0.01
16,ACCAGAGCUCAACACAGCGUGGCAAAGUGGCUGUGGAUAGACUCCC [G1A G2C C37A G44C],0.07
17,AGCAGAGCUCAACACAGCGUGGCAAAGUGGAUGUGGCUAGAGUGCC [G1A C31A C42G],0.03
18,AGCAGAGCUCAAUACAGCGUGGCAAAGUUACUGUGGCUAGACAGCC [G1A C13U G29U G30A U43A],0.03
19,AGCAGAGCUCAAGACAGCGUGACAAAGCGGCUGUGGCUAGACUGCC [G1A C13G G22A U28C],0.13

row,Variant,self-cleavage
1,AGCAGAGCUCAACACAGCGUGGUAAAGUGGCUGUGGCAAGACUGCC [G1A C23U U38A],2.37
2,AGCAGAGCUCAACAGCGCUUGGCAAAGUGGCUGUGGCUAGGCUGCC [G1A C15G A16C G19U A41G],0.01
3,AGCAGAGCUCAAAACAGCGUGGCAAAUUGGCUGCGGCUAUACUGCC [G1A C13A G27U U34C G40U],0.01
4,AACAGAGCUCAACACAGAGUGGCAAAGUGACUGUGGCUAGACUGCC [G1A G2A C18A G30A],0.52
5,AGCAGAGCUCAACAUAGCGUGGCAAAGUGGCUGCGGCUAGACUGCC [G1A C15U U34C],0.14
6,AGCAGAGCUCAACACAGCGUGGAAAAGUGGCUCUGGCUGGUCUGCC [G1A C23A G33C A39G A41U],0.03
7,AGCAGAGCUCAAGCCAGCGUGGCAAAUUGGCUAUGGCUAGACUGCC [G1A C13G A14C G27U G33A],0.04
8,AGCAGAGCUCAACACAGGGUGGCAAAGAGGCUUUGGCUAGACUGCC [G1A C18G U28A G33U],0.03
9,AGCAGAGCUCAACACAGCGUGGCAAAGUGGAUGCGGCCAGACAGCC [G1A C31A U34C U38C U43A],0.02
10,ACCAGAGCUCAACACAGCGUGGCAACGUGGCUGUGGCUAGACUGCC [G1A G2C A26C],0.32
11,AGCAGAGCUCAAAACAGCGUGGCAUAGUGGCUGCGACUAGACUGCU [G1A C13A A25U U34C G36A C46U],0.02
12,AGCAGAGCUCAACACAGACUGGCAAAGUGGCUGUGCCUAGACUGCC [G1A C18A G19C G36C],0.04
13,AGCAGAGCUCAACACAGCGUGGUAAAGUGGCUGUGGCUAGACUUCG [G1A C23U G44U C46G],0.06
14,ACCAGCGCUCAACACAGCGGGGCAAAGUGGCGGUGGCUAGACUGGC [G1A G2C A6C U20G U32G C45G],0.02
15,AGCAGAGCUCAACAAAGCAUGGCUAAGUGGCUGUGGCUAGACUGCC [G1A C15A G19A A24U],0.06
16,AUCAGAGCUCAACACAGCGUGGCACAGUGUCGGUGGGUAGACUGCC [G1A G2U A25C G30U U32G C37G],0.05
17,AGCAGAGCUCAACACAGCGUGGCAAAGUGGCUGUGGGUAGGCAGCC [G1A C37G A41G U43A],0.03
18,AUCAGGGCUCAACACAGCGUGGCAAAGUGGCUGUGGCUGGACUGCC [G1A G2U A6G A39G],0.02
